# Hit rate of the full screen: of about 420,000 compounds, about 50,000 (12%) were called active. Inconclusive results, whose numbers are uncertain, are shown with a selection of clear calls. The call rests on the fitted dose curve; in most records, active means well fitted inhibition curve with a large enough effect; inconclusive means small, poorly fitted or top-dose-only effect; inactive means flat fitted curve, though single readings scatter. No potency is given beside an inconclusive call; the fits are too rough.
# Experiment: qHTS for Inhibitors of human tyrosyl-DNA phosphodiesterase 1 (TDP1): qHTS in cells in presence of CPT; further: nearly all actives have a fitted effect of over 55% in size
# Settings: chicken DT40 Tdp1-/-;hTDP1 cells + 20 nM CPT, ATP luminescence, 48 h; activity change, negative = growth inhibition: at 46.2 µM (top of the series) unless noted
# In short: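 Cell growth measured by CellTiter-Glo luminescence after a minimum 48 h, 37 C compound exposure with 20 nM CPT in Tdp1-knockout DT40 cells stably expressing hTDP1, seeded 400/well; qHTS titration format.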
# On the % scale 0 is the no-effect control and ±100 the full control effect; potency means the concentration at half of the fitted maximal effect; tags describe the fitted curve by direction and shape.
SMILES,Potency,"activity change, negative = growth inhibition"
CC(C)n1nc(C(=O)Nc2cccc(S(=O)(=O)NCc3ccco3)c2)c2ccccc2c1=O,"inconclusive [inhibitor, single point]",
O=C1NN(c2ccccc2)C(=O)/C1=C/c1ccc(-c2cccc(C(=O)O)c2)o1,,inactive: -25.8%
COc1cc(CN2CCCC(C(=O)c3ccccc3SC)C2)cc(OC)c1 (stereo not drawn),active: 14.6 µM,
COc1cc(Cl)c(C)cc1NC(=O)CSc1nnc(CN2CCCC2)o1,,inactive: -20.8%
Cc1cccc(-c2nnc(SCC(=O)N3CCCc4ccccc43)o2)c1,"inconclusive [inhibitor, single point]",
CCCCCCCCCCCCCCCC(=O)NCCO,"inconclusive [inhibitor, single point]",
CCCCCCCCCCCCCCCC(=O)OC(CC(=O)O)C[N+](C)(C)C (stereo not drawn),active: 5.8 µM,
O=C(NCCc1ccccc1)c1cccc([N+](=O)[O-])c1,,inconclusive: -31.1% [inhibitor]
COC(=O)C(C)NC(=O)N1CCN(c2nnc(C)c3c(C)n(-c4ccc(Cl)cc4)nc23)CC1 (stereo not drawn),"inconclusive [inhibitor, single point]",
CCOC(=O)c1c(-c2ccccc2)oc2ccc(OC(C)=O)cc12,,inactive: 6.03%
O=C(CC12CC3CC(CC(Br)(C3)C1)C2)NC1=NCCS1,,inactive: -0.0217%
Cc1ccc(S(=O)(=O)c2nnn3c2nc(NCc2cccs2)c2sccc23)cc1C,"inconclusive [inhibitor, single point]",
Cc1nccn1CC(=O)c1ccccc1,,inactive: 0.588%
CCOC(=O)c1c(NC(=O)C2CCCCC2)sc2c1CCN(C(C)C)C2,active: 14.6 µM,
O=[N+]([O-])c1cc2ccccc2nc1-c1ccccc1,,inactive: -16%
CC(C)C(NS(C)(=O)=O)c1nnc2n1CCN(Cc1ccnc3ccccc13)CC2 (stereo not drawn),"inconclusive [inhibitor, single point]",
Cn1nnnc1SCCNCc1ccccc1OCc1ccc(Cl)cc1Cl,active: 18.4 µM,
COc1cc(OC)cc(C(=O)Nc2ccc(-c3nc4ccccc4o3)cc2)c1,active: 16.4 µM,
O=C(/C=C/c1c(Cl)nc2ccccn12)N1CCCCC1,,inactive: -24.4%
Cc1cccc(CS(=O)(=O)c2ncc(Cl)c(C(=O)Nc3nc4ccc(F)cc4s3)n2)c1,active: 2.31 µM,
CCc1ccccc1N(CC(=O)Nc1cccnc1)S(=O)(=O)c1ccccc1,,inactive: -9.58%
CC(C)Oc1cc(F)ccc1-c1cc(C(=O)Nc2ccccc2)[nH]n1,"inconclusive [inhibitor, single point]",
CC(=O)Nc1cccc(NC(=O)c2c(-c3ccccc3)noc2C)c1,"inconclusive [inhibitor, partial curve]",
COc1cc(C2C(C#N)=C(N)Oc3cc(O)ccc32)cc2c1OCO2 (stereo not drawn),"inconclusive [inhibitor, single point]",

SMILES,Potency,"activity change, negative = growth inhibition"
N#Cc1c(N)nc(SCc2ccccc2)c(C#N)c1-c1ccco1,"inconclusive [inhibitor, single point]",
Cc1ccc(S(=O)(=O)N2CCOCC2)cc1NC(=O)CSc1nnnn1C1CC1,,inactive: -18.9%
CN1CCN(CCCNC(=O)c2ccc(CSCc3cccc(Cl)c3)o2)CC1,"inconclusive [inhibitor, single point]",
Cc1ccnc(NC2CCCCC2)c1,,inactive: -25.5%
O=C1[C@H]2[C@@H](c3ccc(F)cc3)N3C(=O)N(c4cccc(Br)c4)C(=O)[C@@]3(Cc3ccc(Cl)cc3)[C@H]2C(=O)N1C1CCCCC1,"inconclusive [inhibitor, single point]",
CCOc1ccc(NC(=O)c2ccc(F)c(S(=O)(=O)N3CCCC3)c2)cc1,active: 9.2 µM,
O=C(Oc1ccc(/C=N/Nc2nc(N3CCCCC3)nc(N3CCCCC3)n2)cc1)c1ccco1,"inconclusive [inhibitor, single point]",
Cc1ccc(C)c(NS(=O)(=O)c2ccc3c(c2)n(C)c(=O)n3C)c1,,inactive: -20.5%
COc1ccc(-c2noc(Cn3c(=O)c4ccccc4n(CC(=O)Nc4cccc(C(F)(F)F)c4)c3=O)n2)cc1,"inconclusive [inhibitor, single point]",
CCOC(=O)c1c(NC(=O)CN2CCOCC2)sc2c1CCCC2=O,,inactive: -8.03%
Cc1cncc(NCc2cccc(Cl)c2)n1,,inactive: -18.7%
CC(=O)c1cccc(NC(=O)Nc2cnn(Cc3ccc(Cl)cc3Cl)c2)c1,"inconclusive [inhibitor, single point]",
Cc1cc(NC(=O)CN2CCN(c3ccccn3)CC2)ccc1Br,"inconclusive [inhibitor, single point]",
Cc1ccc(-c2csc(-c3cc(C)on3)n2)cc1,,inactive: 4.19%
CCOc1ccc(N(CC)S(=O)(=O)N2CCCC(C(=O)NCc3ccc(Cl)cc3)C2)cc1 (stereo not drawn),"inconclusive [inhibitor, single point]",
Cc1noc(C)c1COc1ccc(C(=O)N2CCN(c3ccccc3O)CC2)cc1,"inconclusive [inhibitor, single point]",
O=C(CSc1nnc(NC(=O)C2CC(=O)N(c3ccccc3)C2)s1)NCc1ccco1 (stereo not drawn),,inactive: 4.46%
CCCS(=O)(=O)NC(=O)C1(C)CCCN(C(=O)c2cc(OC)c(OC)c(OC)c2)C1 (stereo not drawn),,inactive: 3.96%
CCn1c(-c2ccccc2F)nc2cc(NC(C)=O)cc(C(=O)N(C)Cc3cn(C)nc3C)c21,,inactive: 23.9% [at 9.04 µM]
O=C(Cc1ccc(F)cc1)NCCc1csc(-c2cccc(F)c2)n1,"inconclusive [inhibitor, single point]",
COc1cc(C(O)c2nc3ccccc3n2C)cc(OC)c1OC (stereo not drawn),"inconclusive [inhibitor, single point]",
O=C1CC(c2ccc(O[C@@H]3OC(CO)[C@@H](O)C(O)C3O)cc2)Oc2cc(O)ccc21 (stereo partly drawn),,inactive: 6.21% [at 9.04 µM]
O=C(N/N=C/c1ccccc1O)C(=O)N1CCCCCC1,"inconclusive [inhibitor, single point]",
O=C(Nc1ccon1)c1cccc(S(=O)(=O)N2CCCCC2)c1,"inconclusive [inhibitor, full curve]",

# — PubChem BioAssay AID686979 (National Center for Advancing Translational Sciences (NCATS), 2013)
